The record followed here is ChEMBL document CHEMBL4888484, “Replenishing the malaria drug discovery pipeline: Screening and hit evaluation of the MMV Hit Generation Library 1 (HGL1) against asexual blood stage Plasmodium falciparum ,using a nano luciferase reporter read-out” (2022).

For the test, the system named is Plasmodium falciparum. As to the kind of experiment: Primary screen in NF54 nanoGlo assay, in single point, at 2uM, 72h; a lower Z score goes with more inhibition. Type of test: functional, Erythrocyte. Conditions: timepoint 72 hour.

Each structure is given as a SMILES string. Values joined by “and” are separate entries in the source; they are usually repeats but may differ in a detail not shown here. Identical values can stand only once. Hit rate of the full screen: of about 150,000 compounds, about 540 (0.36%) showed an effect of 50% or more. Some of the results follow.

As for `COCC(=O)N(CC(=O)N1CCN(c2ccc(-c3cccc(OC)c3)nn2)CC1)Cc1ccc(F)cc1`, the “% Inhibition” value is -18% and the Z score is listed as 1.76.
The matching figures for `CNc1ccc(S(N)(=O)=O)cc1NS(=O)(=O)CCC1CC1`: 12% and -1.62.
As to `COc1ccccc1CC(=O)c1ccc(O)c(CN2CCCC[C@@H]2C)c1O`, the “% Inhibition” value is on record as 3% and the Z score is -0.49.
The matching figures for `COc1cccc(S(=O)(=O)N2CCC(F)(C(=O)NC3CC3)CC2)c1`: -8% and 1.05.
The matching figures for `O=C1c2ccccc2C(=O)N1c1nc2c(ccc3ccccc32)s1`: -2% and 0.32.
The matching figures for `CCOC(=O)N1CCC(N2CCc3[nH]nc(/C=C/c4ccccc4)c3C2)CC1`: -15% and 1.29.
For `CC(C)(C)c1ccncc1CN1C(=O)[C@H]2CCCCN2C1=O`, the “% Inhibition” value was found to be 16% and the Z score was -2.04.
The matching figures for `Cc1cc(C)cc(C(=O)Nc2ccc3c(c2)C(=O)Nc2ccccc2O3)c1`: 17% and -3.39.
The matching figures for `CCn1cc(NC(=O)c2cccc(C)n2)cn1`: 2% and -0.26.
On to `Cc1cc(C)c(S(=O)(=O)NC[C@H](C)O)cc1Br`, for which the “% Inhibition” value is on record as -7% and the Z score was 1.28.
Taken in the same sequence, the figures for `CCCc1nccn1CCCNS(C)(=O)=O` were -8% and 1.15.
Taken in the same sequence, the figures for `O=C(c1cccc(F)c1)N1CCN(c2cc(-n3ccnc3)ncn2)CC1` were -31% and 2.85.
Consider `O=C(N[C@@H](C1CC1)C(F)(F)F)c1[nH]nc2c1CCCC2`, for which the “% Inhibition” value is on record as -29% and the Z score stood at 3.45.
`CN1CCN(S(=O)(=O)CC(=O)NC[C@@H](c2cccc(Cl)c2)N2CCCC2)CC1`: the “% Inhibition” value is on record as -2% and the Z score worked out at 0.37.
Regarding `Cc1ccccc1Cn1cnc2c1c(=O)n(C1CCCCC1)c(=O)n2-c1ccccc1Cl`, the “% Inhibition” value was found to be 70% and the Z score is listed as -7.57.
Taken in the same sequence, the figures for `Nc1nnc(N[C@H]2COc3ccccc32)[nH]1` were 0% and 0.03.
The matching figures for `O=C(N[C@H]1CC[C@H](Oc2ncc(F)cn2)CC1)N1CCOCC1`: 0% and 0.05.
Regarding `CC(C)N(CC(=O)Nc1sc2c(c1C(N)=O)CCCC2)c1ccccc1`, the “% Inhibition” value amounted to 18% and the Z score is -2.3.
Taken in the same sequence, the figures for `Cc1n[nH]c(C)c1[C@@H](N)C(=O)NCCc1ccccc1F` were -19% and 2.6.
The matching figures for `CC(C)N1CCN(c2nc3ccccn3c2C#N)CC1=O`: -14% and 1.54.
Taken in the same sequence, the figures for `CN(CCCc1nc(-c2ccccc2)no1)C1(CO)CCOCC1` were -8% and 1.55.
As for `Cc1[nH]c(=O)sc1S(=O)(=O)NCCN[C@H]1CCCC1(C)C`, the “% Inhibition” value is -6% and the Z score is on record as 0.8.
Taken in the same sequence, the figures for `COCc1nc(CNC(=O)[C@H]2CCc3nnnn3CC2)cs1` were -9% and 1.68.
The matching figures for `O=C(CN1C(=O)CCC1=O)NCCc1ccc(Cl)cc1`: -4% and 0.56.
Taken in the same sequence, the figures for `CCC1(CC)CN(C(=O)c2cc(C)c(C(N)=O)cn2)c2ccccc21` were -11% and 1.94.
As for `Oc1cccc([C@H]2NCCc3c2[nH]c2ccc(OCc4ccccc4)cc32)c1`, for the setting “2 µM”, the “% Inhibition” value was 12% and 18%; the Z score is -1.58 and -2.95.
As to `Cn1c(CN2CCCC2)nnc1[C@H]1CCCN(c2ccc(Cl)cn2)C1`, the “% Inhibition” value is listed as 3% and the Z score was -0.57.
On to `O=C(c1ccc(N2CCCC2=O)cc1)N1CCC2(CCO2)CC1`, for which the “% Inhibition” value is given as -11% and the Z score worked out at 1.12.
With `Cc1cc(C)n(CCN(C)C(=O)C[C@]2(c3cccc(C(F)(F)F)c3)CC(=O)N(C3CC3)C2=O)n1`, the “% Inhibition” value is given as -4% and the Z score stood at 0.83.
`Cc1nn(C)c(NC(=O)c2scnc2C2CCCC2)c1C`: the “% Inhibition” value is reported as -16% and the Z score is given as 1.41.
On to `Cc1nc(NC(=O)C[C@H]2CCCCO2)n(C)n1`, for which the “% Inhibition” value was -4% and the Z score is listed as 0.36.
The matching figures for `Cc1ccc(O[C@H]2COCC[C@H]2NC(=O)Cc2c(C)noc2C)cn1`: -5% and 0.65.
In the case of `CN1CC[C@H](Nc2ccc(OC3CCC3)c(F)c2)C1=O`, the “% Inhibition” value is reported as -14% and the Z score came out at 1.19.
The matching figures for `O=S(=O)(NCCN1CCC[C@H](Cn2cncn2)C1)c1ccccc1`: -5% and 0.44.
The matching figures for `CC[C@H]1CCCCN1S(=O)(=O)CCCS(C)(=O)=O`: 7% and -0.59.
The matching figures for `c1csc([C@@H](NC2CCC3(CC2)OCCO3)C2CC2)n1`: 1% and -0.08.
`CCC(C)(C)NC(=O)c1ccc(NCc2noc(Cc3ccccc3)n2)cc1`: the “% Inhibition” value stood at 1% and the Z score was -0.16.
Taken in the same sequence, the figures for `CC(=O)NCc1csc([C@H]2CCCN(S(=O)(=O)c3ccc(C)cc3C)C2)n1` were -11% and 1.41.
Turning to `Cc1nn(CC(=O)N2CCc3ccccc3C2)c(C)c1Cl`, the “% Inhibition” value is recorded as -3% and the Z score amounted to 0.31.
Turning to `c1ccc(CN2CCCN(c3ncccn3)CCOCC2)cc1`, the “% Inhibition” value is given as -2% and the Z score is recorded as 0.18.
The matching figures for `CCO[C@H]1COC[C@@H]1n1cnc(-c2ccccc2)c1-c1cncn1CC`: -11% and 1.66.
The matching figures for `N#Cc1ccc(-n2nc(C3CCOCC3)nc2[C@@H]2CNC(=O)N2)cc1`: -13% and 2.57.
Taken in the same sequence, the figures for `Cc1cc(CCCOc2ccc(C#N)nn2)on1` were 13% and -1.7.
Take `Clc1cc(CNc2ccccc2-c2ccccc2)c2c(c1)COCO2`: the “% Inhibition” value is -8% and the Z score turned out to be 1.15.
Taken in the same sequence, the figures for `CCCN(CC(=O)Nc1ccc(Cl)cc1)C(=O)c1cc(C)nn1C` were -14% and 1.67.
The matching figures for `CCOC(=O)CNc1nc(C)cc(C)c1C#N`: -18% and 2.05.
The matching figures for `CC(C)(C)OC(=O)c1ccc(NC(=O)[C@H]2CCCO2)nc1`: -6% and 0.87.
As to `Cc1cnc2c(cnn2CC(=O)N2CCOC[C@@H]2CC2CC2)c1`, the “% Inhibition” value was -3% and the Z score is on record as 0.44.
For the compound `CC(=O)Oc1c(C)cc(CN[C@@H](C)Cn2cccn2)cc1C`, the “% Inhibition” value is given as -10% and the Z score was determined as 1.88.
Regarding `Cc1nsc(NC(=O)[C@H]2CCc3cnn(C)c3C2)n1`, the “% Inhibition” value was 0% and the Z score was -0.07.
`Cc1cccc(C)c1CN(C)C(=O)NCc1cnnn1C`: the “% Inhibition” value was -10% and the Z score worked out at 1.49.
Taken in the same sequence, the figures for `CCc1nnc2c(=O)n(CC(=O)NCc3ccccc3F)c3cccnc3n12` were -10% and 1.33.
For `O=C(Nc1nncs1)C1CCN(C(=O)c2ccncc2Cl)CC1`, the “% Inhibition” value was -4% and the Z score was found to be 0.67.
The matching figures for `Cn1cc(C2C[S+]([O-])CCN2C(=O)C2CC2C2CC2)cn1` (stereo not given): -12% and 1.89.
Taken in the same sequence, the figures for `Cc1ccc(CNC(=O)[C@H](O)C2CCCCC2)c2cccnc12` were -1% and 0.13.
Taken in the same sequence, the figures for `Cc1nn(Cc2noc(C(C)(C)C)n2)c(=O)c(C#N)c1C` were -3% and 0.51.
For the compound `O=C(c1ccco1)N1CC[C@H](Oc2cc(C(F)(F)F)ccn2)C1`, the “% Inhibition” value is -13% and the Z score was 2.44.
Taken in the same sequence, the figures for `CN(C)CCN(C)[C@@H]1[C@H](O)[C@H](CO)O[C@@H]1CNC(=O)Nc1ccc(OC(F)(F)F)cc1` were 30% and -3.38.
Taken in the same sequence, the figures for `CC[C@H]1c2ccccc2CN1C(=O)Nc1cnn(CC2CC2)c1` were 5% and -0.92.
The matching figures for `CC(C)[C@@H](CNCC(=O)NCC1CC1)CNC(=O)OC(C)(C)C`: -1% and 0.1.
On to `CC1(CO)CN(Cc2cc(Br)ccc2OC(F)F)C1`, for which the “% Inhibition” value is listed as -11% and the Z score was found to be 1.52.
As for `Cn1nc(CN2CC[C@@](O)(CN3CCCCC3)C2)c2c(Cl)cccc21`, the “% Inhibition” value is on record as -2% and the Z score turned out to be 0.34.
Take `CCN1CCC[C@@H]1CNC(=O)c1cc(NC(C)=O)c(N(C)C)cc1OC`: the “% Inhibition” value is given as -5% and the Z score is given as 0.6.
Taken in the same sequence, the figures for `CCc1c(C)nc(N)nc1NCc1nc(CCOC)no1` were -14% and 1.79.
Taken in the same sequence, the figures for `C[C@@H](C(=O)NCCc1ccc2c(c1)OCCO2)n1cccn1` were -5% and 0.91.
The matching figures for `COc1cc([C@@H]2c3c(-c4ccc(OCc5ccc(C)cc5)cc4)nn(C)c3C(=O)N2CCc2ccccc2)cc(OC)c1O`: 1% and -0.17.
Consider `CCC[C@H](NC(=O)c1cc2ccccc2o1)c1nnn[nH]1`, for which the “% Inhibition” value was -7% and the Z score is 0.68.
In the case of `COCCC1CCN(C(=O)CN(C)C(=O)c2cccnc2)CC1`, the “% Inhibition” value came out at 1% and the Z score is given as -0.26.
Regarding `O=C(Cc1c[nH]c2ccccc12)N1CC[C@H](Oc2cccnn2)C1`, the “% Inhibition” value is recorded as -5% and the Z score is reported as 0.59.
Taken in the same sequence, the figures for `Cc1ccc(OCC(=O)N2CCOc3ccc(CN4CCCCC4)cc3C2)cc1` were -5% and 0.51.
Taken in the same sequence, the figures for `C[C@@H](CNC(=O)c1cccs1)NC(=O)c1cccs1` were -7% and 0.77.
Consider `CCN(C)C(=O)Cn1cnc2c(ncn2-c2ccccc2)c1=O`, for which the “% Inhibition” value is -3% and the Z score is on record as 0.55.
Taken in the same sequence, the figures for `CCNC(=O)[C@H]1CCN(C(=O)Nc2cc(-c3nnn(C)n3)ccc2C)C1` were 5% and -0.6.
Taken in the same sequence, the figures for `CCN1CCN(C(=O)Cn2cnc3nc4c(cc3c2=O)CCCC4)CC1` were -12% and 1.81.
Taken in the same sequence, the figures for `CCn1ncnc1-c1c(-c2ccccc2)ncn1[C@@H](C)Cc1cc(C)n[nH]1` were -5% and 0.74.
In the case of `Cc1ccc(C2=C[C@@H](c3cccc4ccccc34)n3nnnc3N2)cc1`, the “% Inhibition” value is given as 21% and the Z score is recorded as -2.69.
For the compound `CCCc1ccc(C(=O)OCCOCCNC(=O)C(F)(F)F)cc1`, the “% Inhibition” value is listed as -3% and the Z score is on record as 0.3.
Regarding `CC(C)Oc1ccc(C(=O)NCc2cn(-c3cccnc3)nn2)cc1`, the “% Inhibition” value is reported as -4% and the Z score was determined as 0.58.
The matching figures for `C[C@H](NC(=O)c1cnc(C2CC2)nc1O)c1nc(-c2cccnc2)no1`: -9% and 1.31.
In the case of `CN(Cc1nnsc1Cl)C1CCCCCC1`, the “% Inhibition” value is -2% and the Z score came to 0.24.
For the compound `CCc1ccc(NC(=O)N[C@H]2CCN(C3CCC3)C2=O)cc1F`, the “% Inhibition” value is reported as -1% and the Z score turned out to be 0.21.
The matching figures for `CCn1cnnc1CCNc1cc([C@H]2CCOC2)ncn1`: 0% and 0.01.
Taken in the same sequence, the figures for `CCNS(=O)(=O)C1CON(C)C1c1cccc(Cl)c1Cl` (stereo not given) were -4% and 0.53.
The matching figures for `Cc1cc(C)c(NC(=O)CN(C)C(=O)c2ccc3[nH]c4c(c3c2)CCCC4)c(C)c1`: 4% and -0.7.
`COC(=O)CNC(=O)NCCc1ncc(C)n1C1CCCCCCC1`: the “% Inhibition” value was -4% and the Z score is 0.65.

For orientation: % Inhibition means the change of the read-out against control, counted positive when it falls.
